# Test results: the supplement of paper PMC11417369
# ± gives the standard deviation of the averaged measurements. This is one part of the list.
# System: PfAP2-EXP AP2 domain (GST-tagged)
# Assay: gcPBM binding intensity (ln(normalized median fluorescence intensity)); higher = stronger DNA binding
# Summary of the method: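 The highest Masliner-normalised natural-log median intensity across replicate spots of either probe orientation is reported as binding intensity. GST-tagged P. falciparum DNA-binding domains expressed in E. coli were applied for 1 h to an Agilent 4 × 180k array of primer-extended double-stranded 36-bp intergenic genomic probes plus negative controls, and bound protein was detected with Alexa488 anti-GST antibody and scanned at 488 nm.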
row,Sequence,gcPBM binding intensity (ln)
1,ATAAAAAAAAAAAATACACACATATATATATATATA [CACACA_site1709],10.1 ± 0.26
2,TATATTTTTTAAAAAAGTACAAAGTAATTATTGATT [XGTACX_site2420],8.56 ± 0.37
3,TGAAATGAAAGAACAGCACACATATATATTATATAT [CACACA_site8613],8.64 ± 0.42
4,GTAGTACATTCTAGAATACACACCTATATATATATA [CACACA_site522],10 ± 0.24
5,ATATGAAAAACTTCATGTACTTATTATAAAATATAA [XGTACX_site2725],8.14 ± 0.19
6,CTTTTTTTTTTGTATTGTACTTTATTTTTACATCGT [XGTACX_site2918],8.8 ± 0.47
7,ATTTTTAATTTTTTCACACATATATTTAAAATAAAA [CACACA_site4799],8.41 ± 0.46
8,ATTCTAATTTTATGAAACGATTATTTTGAATTCATT [XGTACX_negctrl_site578],8.45 ± 0.38
9,ATAAAAAAAAATATATGTACATATATAAATTGATAT [XGTACX_site7409],8.73 ± 0.42
10,GATTACCTTTTTTTTTTTTTTTTTTTTTTTTTTTTC [CACACA_negctrl_site147],8.14 ± 0.52
11,TTATAGACATATATAGGTACACATATTTTCAATCCC [XGTACX_site8230],8.72 ± 0.65
12,ATTTATTAATCATATACACACATATATTTGTATTTA [CACACA_site1336],8.55 ± 0.4
13,TATTTTTTTAAAATAGGTACACAATCAAACATTTAT [XGTACX_site8785],8.63 ± 0.42
14,ACCTCATAATATTTAACACACAAAATTATCTGTATG [CACACA_site5015],8.94 ± 0.43
15,CGTCCAAAATATCCTTCACACACGAACAGTTTCATT [CACACA_site2729],8.76 ± 0.41
16,TTTAAATAAAAATGGAGTACTCTAAAAAAAAAAAAA [XGTACX_site1233],8.53 ± 0.63
17,CTATAATATTATAACAGTACATAATATTATATATAT [XGTACX_site1414],8.58 ± 0.24
18,GCATTGATCAAACATACACACATGGTTAATAAAAAT [CACACA_site2085],8.72 ± 0.55
19,ATATATATATATAATACACACATAAATGAATATATA [CACACA_site316],9.85 ± 0.18

row,Sequence,gcPBM binding intensity (ln)
1,TTTATATAATATTCTACACACCAACAACAAACATAT [CACACA_site4478],8.92 ± 0.47
2,GTGATTTCTATGAATTGTACTTAAATATAGTTATAT [XGTACX_site231],8.51 ± 0.28
3,AAAAAACGCACTCGTACACACATATTTTCTTTCTAA [CACACA_site3089],8.61 ± 0.16
4,AATATTTACCAGAAAATAAAAATATGTATATATATA [CACACA_negctrl_site351],9.19 ± 0.071
5,ATATAATCAACTGCAAAGGTTTAAAAGGAAAAAATA [CACACA_negctrl_site989],8.7 ± 0.44
6,TTAATTACACAAAAAAGTACTTGATATTGTTTATTA [XGTACX_site3449],8.17 ± 0.34
7,AATATTTATATTTACACACACATAATACATATATGT [CACACA_site33],8.49 ± 0.27
8,TTTTTATTCAACAAAAATATCAAACATAATTATAAA [CACACA_negctrl_site616],8.67 ± 0.45
9,ATATACAACTAAAGAACACACATCATTGTTCATTGG [CACACA_site3681],8.4 ± 0.44
10,TTCCTTTAACCCTGCACACATACATACATTTATATG [CACACA_site3953],9.08 ± 0.45
11,ATTTTTATGTCTTTCTATAAATCGAAAATATACATA [CACACA_negctrl_site477],8.2 ± 0.17
12,TAAAATAGAAATATATGTACATATATATATGTATAT [XGTACX_site4134],8.39 ± 0.35
13,ATTTATATTTTTTAATGTACATTTATATGTATACAA [XGTACX_site4555],8.78 ± 0.41
14,CGATATTCTAAGGATAGTACATAATAAAATAGAGTA [XGTACX_site4224],8.6 ± 0.44
15,AAAAAAAAATATATATATATATATATATAATAAAAA [CACACA_negctrl_site639],8.51 ± 0.27
16,ATTCTACACGCACATACACACATATAAATATAAATA [CACACA_site7582],9.02 ± 0.28
17,ATTTATGTTATTGTATGTACACAATATAATGTTATT [XGTACX_site5657],8.56 ± 0.32
18,ATATTTTACATATTTGCACACATATATTTAAATACA [CACACA_site4628],8.79 ± 0.21
19,ATAATATATATGAAATGTACATAAATTTAATGCGAC [XGTACX_site5394],9.31 ± 0.42

row,Sequence,gcPBM binding intensity (ln)
1,ACACAAAAATAGTTTTTTATATTGTTAACCTTATAT [XGTACX_negctrl_site123],8.51 ± 0.47
2,AAAAAAAAAAAATGTGCACACGCGTACAGACAAAAA [CACACA_site2005],9.11 ± 0.48
3,TAAAAAGTACATTATTCATGGCCTATTACATTTTTT [GTGCAC_negctrl_site282],8.7 ± 0.33
4,ATGTGCACATGTAGAAGTACTTTTTCTTAAAATACT [XGTACX_site8341],8.68 ± 0.16
5,TATGTTTTATATAAGATGCACTTTTGTTATGCTTCA,8.67 ± 0.41
6,CAAATACACGGACACACACACACAAAAAAAAAAAAA [CACACA_site6385],8.38 ± 0.44
7,AAATTATTGTAAAATAGTACAGTGAAACATAAAGTT [XGTACX_site589],8.78 ± 0.47
8,TTTATTTTGTTTTCTTGTACATAAATAATTACATAT [XGTACX_site4227],8.86 ± 0.35
9,TTTATTTGGACATATACACACTTAAATATGTTTATT [CACACA_site6021],8.4 ± 0.31
10,TAAATACAAGTAAAAAGTACAGAAAAATTATATATA [XGTACX_site1758],8.65 ± 0.38
11,TATAATAATTCATAATGTACTTTTATCAAAAAAGTA [XGTACX_site6868],8.15 ± 0.34
12,TGATTCACTATAGTAGTGCATATTATATATATATAT [GTGCAC_site9975],9.88 ± 0.32
13,TATAAAAAATTCAATACACACCATATATAAATATAT [CACACA_site6060],8.38 ± 0.28
14,AAGAGAAATGGGCACACACACACATATTATAGATAT [CACACA_site6828],8.78 ± 0.49
15,ATTCATTTTATTTTTTCACACACACCGATATATATA [CACACA_site9097],8.89 ± 0.43
16,ATTTTTCAATTATGTAGTACATTGATATTTTCATTT [XGTACX_site5369],8.47 ± 0.31
17,ACCCCCATATTCTTTTTACACACTTGAATAAAAAAT [CACACA_site8319],9.62 ± 0.49
18,ATAAATATGGAGCACACACACATAAACATACATATA [CACACA_site421],8.84 ± 0.67
